PMC11992174, “Structural Insights into Bortezomib-Induced Activation of the Caseinolytic Chaperone-Protease System in Mycobacterium tuberculosis” (Nature Communications, 2025)

Target: the molecule itself
Test: cryo-EM structure

B1: Mycobacterium tuberculosis caseinolytic protease P2 (MtbClpP2) (enzyme)
chain: not shown
  stoichiometry N: 7
